# Assay results published in a collection of fitness landscapes (doi:10.1016/j.celrep.2020.107928).
# The full ranking holds about 81,000 sequences; the median of “one-hybrid fitness for binding parS DNA” is about -0.17, and the highest 2% start at about 0.51. The list shows a part of the results.
# B1: Caulobacter ParB omega fusion; a variant is named by its letters at X, in order, B8GW30 (parent)
# chain: MESVVVGEPGMSEGRRGLGRGLSALLGEVDAAPAQAPGEQLGGSREAPIEILQRNPDQPRRTFREEDLEDLSNSIREKGVLQPILVRPSPDTAGEYQIVAGERAWRAAQRAGLKTVPIMVRELDDLAVLEIGIIENVQRADLNVLEEALSYKVLMEKFERTQENIAQTIGKSXSHVANXMRLLXLPDEVQSYLVSGELTAXHARAIAAAADPVALAKQIIEGGLSVRETEALARKAPNLSAGKSKGGRPPRVKDTDTQALESDLSSVLGLDVSIDHRGSTGTLTITYATLEQLDDLCNRLTRGI
# Variants of: B1
# Test: one-hybrid fitness for binding parS DNA (scaled: cognate 1, non-cognate 0); higher = stronger binding
# Details: with parS DNA site
# Procedure, shortened: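 Fitness here means the log change in variant-to-wild-type read ratio between plasmids sequenced before and after selection. That scale was set so cognate equals 1 and non-cognate equals 0. The selection was a bacterial one-hybrid screen of Caulobacter ParB libraries, four specificity codons randomised, in E. coli USO carrying a HIS3 reporter with the site 19 bp from the promoter, grown 48 hours at 37°C on M9-minus-histidine with 0.1 mM IPTG and 5 mM 3-AT.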
row,Variant,one-hybrid fitness for binding parS DNA
1,PLSV,≤ 0.2
2,TQEC,≤ 0.2
3,VRTL,≤ 0.2
4,DADM,≤ 0.2
5,VRKS,≤ 0.2
6,RVTI,≤ 0.2
7,GCTS,≤ 0.2
8,PSDG,≤ 0.2
9,NVEG,≤ 0.2
10,LGRQ,≤ 0.2
11,CRGV,≤ 0.2
12,NAMT,≤ 0.2
13,IFCS,≤ 0.2
14,RDLW,≤ 0.2
15,RCGV,≤ 0.2
16,GNQR,≤ 0.2
17,NHLT,≤ 0.2
18,TMIR,≤ 0.2
19,TMQT,≤ 0.2
20,MSGR,≤ 0.2
21,TFRN,≤ 0.2
22,IYDK,≤ 0.2
23,SSFF,≤ 0.2
24,QSPC,≤ 0.2
25,LHRQ,≤ 0.2
26,MILE,≤ 0.2

row,Variant,one-hybrid fitness for binding parS DNA
1,LEQS,≤ 0.2
2,NVRM,≤ 0.2
3,LAVN,≤ 0.2
4,DDCS,≤ 0.2
5,FGNS,≤ 0.2
6,TYWC,≤ 0.2
7,FVRV,≤ 0.2
8,WTSG,≤ 0.2
9,MMWR,≤ 0.2
10,FNFV,≤ 0.2
11,ITSV,≤ 0.2
12,PEMV,≤ 0.2
13,LHRK,≤ 0.2
14,PGRH,≤ 0.2
15,TCSN,≤ 0.2
16,DRMS,≤ 0.2
17,WAPI,≤ 0.2
18,TDTE,≤ 0.2
19,RKHF,≤ 0.2
20,RWMK,≤ 0.2
21,LPKH,≤ 0.2
22,VHGT,≤ 0.2
23,CPIC,≤ 0.2
24,QKNM,≤ 0.2
25,IGLI,≤ 0.2
26,LEEG,≤ 0.2

row,Variant,one-hybrid fitness for binding parS DNA
1,TGNW,≤ 0.2
2,VPVV,≤ 0.2
3,HYCT,≤ 0.2
4,RWPL,≤ 0.2
5,MMNF,≤ 0.2
6,EKPR,≤ 0.2
7,CMRW,≤ 0.2
8,SANF,≤ 0.2
9,HRCK,≤ 0.2
10,IEGT,≤ 0.2
11,WGVG,≤ 0.2
12,LITE,≤ 0.2
13,VLYW,≤ 0.2
14,QRRI,≤ 0.2
15,RDIR,≤ 0.2
16,AADE,≤ 0.2
17,ERLC,≤ 0.2
18,QEWA,≤ 0.2
19,TNNR,≤ 0.2
20,SAKS,≤ 0.2
21,MLHK,≤ 0.2
22,LTKF,≤ 0.2
23,FAGV,≤ 0.2
24,PIYV,≤ 0.2
25,PQPK,≤ 0.2
26,VSRT,≤ 0.2

row,Variant,one-hybrid fitness for binding parS DNA
1,KTWL,≤ 0.2
2,YSDV,≤ 0.2
3,CVGR,≤ 0.2
4,TIQI,≤ 0.2
5,QMIE,≤ 0.2
6,RAIF,≤ 0.2
7,RQSF,≤ 0.2
8,VASI,≤ 0.2
9,QSWY,≤ 0.2
10,WAPR,≤ 0.2
11,PWAW,≤ 0.2
12,LQGM,≤ 0.2
13,SLST,≤ 0.2
14,HEGR,≤ 0.2
15,CIQS,≤ 0.2
16,PWYI,≤ 0.2
17,CLGA,≤ 0.2
18,RMAL,≤ 0.2
19,DRMR,≤ 0.2
20,QDGL,≤ 0.2
21,INIY,≤ 0.2
22,HVGS,≤ 0.2
23,VDMT,≤ 0.2
24,MYYS,≤ 0.2
25,YMHA,≤ 0.2
26,THIR,≤ 0.2

row,Variant,one-hybrid fitness for binding parS DNA
1,QKVG,≤ 0.2
2,YLTS,≤ 0.2
3,KVWM,≤ 0.2
4,TTRA,≤ 0.2
5,FPVS,≤ 0.2
6,WRHT,≤ 0.2
7,RQCS,0.976
8,QICW,≤ 0.2
9,LYER,≤ 0.2
10,QRDW,≤ 0.2
11,HFKC,≤ 0.2
12,CEKE,≤ 0.2
13,NPIH,≤ 0.2
14,TVRD,≤ 0.2
15,TGTI,≤ 0.2
16,MVNC,≤ 0.2
17,RILM,0.333
18,IYRS,≤ 0.2
19,PFVT,≤ 0.2
20,WGKM,≤ 0.2
21,TESM,≤ 0.2
22,YKSY,≤ 0.2
23,SRTL,≤ 0.2
24,NKNV,≤ 0.2
25,NLNL,≤ 0.2
26,HREW,≤ 0.2

row,Variant,one-hybrid fitness for binding parS DNA
1,DNSE,≤ 0.2
2,AGTK,≤ 0.2
3,HGSI,≤ 0.2
4,CQNC,≤ 0.2
5,KRWL,≤ 0.2
6,QLCV,≤ 0.2
7,GINK,≤ 0.2
8,PVQR,≤ 0.2
9,LYVM,≤ 0.2
10,RHTC,0.946
11,QKIY,≤ 0.2
12,STPH,≤ 0.2
13,QTWP,≤ 0.2
14,DQLY,≤ 0.2
15,RMKA,0.735
16,EARL,≤ 0.2
17,TWGG,≤ 0.2
18,AMAP,≤ 0.2
19,PCQY,≤ 0.2
20,QITV,≤ 0.2
21,YLHR,≤ 0.2
22,QTAF,≤ 0.2
23,WKMR,≤ 0.2
